Source: the supplement of paper PMC6531468
The other results are listed elsewhere or left out. Values come from read counts of a selection and are noisy. Each score is taken over the longer molecules that contain the sequence shown.

Columns and labels:
Test in all cases: 6-mer SELEX enrichment z-score vs GST control; IMP3 is the RNA-binding protein IGF2BP3; higher = more enriched by binding
[1] = system: IMP3 KH1-4; conditions: construct: KH1-4 (164-579); SELEX round: R4
Description: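 SELEX-seq with GST-tagged IMP3 KH1-4 (Pro164-Lys579) and an N40 RNA pool, round 4. 6-mer z-score of sequence-tag enrichment normalised to the corresponding GST SELEX round; RNA k-mers written as DNA (T for U).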

[2] = system: IMP3 RRM1-2; conditions: construct: RRM1-2 (1-163); SELEX round: R2
IMP3 RRM1-2, sequence (chain, as listed by the source): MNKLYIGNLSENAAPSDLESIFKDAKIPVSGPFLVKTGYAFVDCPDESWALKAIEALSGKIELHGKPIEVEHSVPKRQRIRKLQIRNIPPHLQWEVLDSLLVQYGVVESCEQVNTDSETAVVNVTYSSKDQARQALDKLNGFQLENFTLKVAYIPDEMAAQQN
Description: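 SELEX-seq with GST-tagged IMP3 RRM1-2 (Met1-Asn163) and an N40 RNA pool, round 2. 6-mer enrichment z-score normalised to GST SELEX. RNA written as DNA (T = U).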

[3] = biological target: IMP3 full-length (UniProt O00425); conditions: construct: FL IMP3 (1-579); SELEX round: R4
UniProt O00425, sequence (O00425 whole entry): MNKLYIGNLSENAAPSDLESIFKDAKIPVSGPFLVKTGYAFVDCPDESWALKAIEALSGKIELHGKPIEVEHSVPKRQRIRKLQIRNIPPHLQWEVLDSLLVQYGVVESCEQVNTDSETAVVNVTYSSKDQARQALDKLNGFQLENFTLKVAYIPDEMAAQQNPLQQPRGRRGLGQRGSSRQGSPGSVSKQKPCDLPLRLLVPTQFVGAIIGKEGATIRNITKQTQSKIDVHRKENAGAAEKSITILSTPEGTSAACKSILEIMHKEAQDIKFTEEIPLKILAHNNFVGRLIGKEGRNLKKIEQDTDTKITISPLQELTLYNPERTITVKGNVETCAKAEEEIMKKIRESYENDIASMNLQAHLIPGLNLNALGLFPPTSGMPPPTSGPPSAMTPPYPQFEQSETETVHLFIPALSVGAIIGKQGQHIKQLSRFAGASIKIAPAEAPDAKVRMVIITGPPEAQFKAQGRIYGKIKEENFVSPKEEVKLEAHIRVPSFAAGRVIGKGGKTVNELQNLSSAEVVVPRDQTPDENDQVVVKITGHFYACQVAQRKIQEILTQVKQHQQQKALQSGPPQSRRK
Description: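 SELEX-seq with GST-tagged full-length IMP3 and an N40 RNA pool, round 4. Each 6-mer is scored as an enrichment z-score of sequence tags containing it, normalised to the matching GST SELEX round. RNA written as DNA (T = U).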

[4] = system: IMP3 KH1-2; conditions: construct: KH1-2 (164-376); SELEX round: R4
IMP3 KH1-2, sequence (chain, as listed by the source): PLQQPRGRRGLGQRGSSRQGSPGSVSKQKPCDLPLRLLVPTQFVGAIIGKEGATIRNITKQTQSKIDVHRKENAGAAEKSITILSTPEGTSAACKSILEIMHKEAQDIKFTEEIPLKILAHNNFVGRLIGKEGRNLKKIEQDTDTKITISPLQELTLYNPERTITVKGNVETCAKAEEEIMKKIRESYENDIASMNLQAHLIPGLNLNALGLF
Description: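 SELEX-seq with GST-tagged IMP3 KH1-2 (Pro164-Phe376) and an N40 RNA pool, round 4 (stringent 300/600 mM KCl washes). 6-mer z-score of sequence-tag enrichment normalised to the corresponding GST SELEX round; RNA k-mers written as DNA (T for U).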

[5] = system: IMP3 KH3-4; conditions: construct: KH3-4 (377-579); SELEX round: R4
IMP3 KH3-4, sequence (chain, as listed by the source): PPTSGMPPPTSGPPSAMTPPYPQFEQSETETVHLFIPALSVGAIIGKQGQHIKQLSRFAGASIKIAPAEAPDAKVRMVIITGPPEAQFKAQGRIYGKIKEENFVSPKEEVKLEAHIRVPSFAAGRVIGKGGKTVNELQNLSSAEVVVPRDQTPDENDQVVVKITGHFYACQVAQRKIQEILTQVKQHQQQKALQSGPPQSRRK
Description: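 SELEX-seq with GST-tagged IMP3 KH3-4 (Pro377-Lys579) and an N40 RNA pool, round 4. 6-mer z-score of sequence-tag enrichment normalised to the corresponding GST SELEX round; RNA k-mers written as DNA (T for U).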

IMP3 KH1-4, sequence (chain, as listed by the source): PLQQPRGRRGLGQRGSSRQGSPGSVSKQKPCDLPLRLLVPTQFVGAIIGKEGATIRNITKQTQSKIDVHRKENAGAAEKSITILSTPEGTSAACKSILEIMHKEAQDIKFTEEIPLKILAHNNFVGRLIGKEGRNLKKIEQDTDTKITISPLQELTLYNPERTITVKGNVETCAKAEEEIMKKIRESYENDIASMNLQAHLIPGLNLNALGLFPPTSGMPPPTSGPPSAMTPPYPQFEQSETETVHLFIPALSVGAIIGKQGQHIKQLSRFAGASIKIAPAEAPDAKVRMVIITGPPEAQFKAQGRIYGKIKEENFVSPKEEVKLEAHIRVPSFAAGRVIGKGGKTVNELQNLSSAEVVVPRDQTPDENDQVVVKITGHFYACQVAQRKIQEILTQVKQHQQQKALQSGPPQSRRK

Sequence | 6-mer SELEX enrichment z-score [1] | 6-mer SELEX enrichment z-score [2] | 6-mer SELEX enrichment z-score [3] | 6-mer SELEX enrichment z-score [4] | 6-mer SELEX enrichment z-score [5]
CTAGAG | -0.837 | -0.272 | -0.635 | -0.81 | -0.612
AGGGTG | 0.09 | 0.089 | 0.198 | 0.222 | 0.302
GCCATC | 0.278 | 0.594 | 1.01 | 0.111 | -0.242
TCCCAC | -0.717 | -0.099 | -0.746 | -0.688 | -1.52
CGCTAG | -0.444 | 0.017 | -0.232 | -0.34 | -0.363
CGGAAA | -0.455 | -1.53 | -0.876 | -0.576 | -0.012
TACTAC | 0.507 | 0.107 | -0.132 | 0.654 | 0.505
CGAAGG | -0.732 | -0.775 | -0.384 | -0.547 | -0.504
ATCCTT | 0.591 | 0.067 | -0.137 | 0.453 | 0.293
ATTAAT | 1.96 | 0.023 | 0.385 | 1.74 | 2.93
AAGTGT | -0.557 | -0.338 | -0.679 | -0.599 | -0.354
GTCAGA | -0.084 | 0.03 | 0.241 | -0.12 | -0.067
GAACTG | 0.001 | -1.08 | -0.666 | -0.144 | -0.144
AATCAA | 0.337 | 2.12 | 0.842 | 0.376 | 0.637
TTCCCT | 0.316 | 0.017 | -0.424 | 0.171 | -0.134
GGATGT | 0.478 | 0.022 | 0.08 | 0.391 | 0.573
TATTGC | 0.75 | 0.128 | 0.13 | 0.655 | 0.701
CGCTTG | -0.45 | 0.208 | -0.149 | -0.332 | -0.364
AGGAGA | 1.44 | -0.789 | 0.195 | 1.17 | 1.37
CGCCGA | -1.21 | -0.709 | -0.355 | -0.975 | -1.27

Sequence | 6-mer SELEX enrichment z-score [1] | 6-mer SELEX enrichment z-score [2] | 6-mer SELEX enrichment z-score [3] | 6-mer SELEX enrichment z-score [4] | 6-mer SELEX enrichment z-score [5]
GCTTCA | 0.155 | 0.596 | 0.498 | 0.244 | 0.048
GTTGAT | -0.048 | 0.055 | -0.228 | -0.079 | 0.097
GTGAGA | 0.576 | -0.597 | -0.118 | 0.425 | 0.594
GCTGTC | 0.15 | 0.274 | 0.373 | 0.112 | -0.005
GTGCCT | -1.03 | 0.2 | -0.494 | -0.91 | -0.898
GGGTCT | -0.127 | 0.441 | 0.28 | 0.074 | 0.179
ATCATG | 0.94 | 1.71 | 1.77 | 0.673 | 0.706
GAAATT | 0.435 | -0.898 | -0.577 | 0.378 | 1.25
GAACCG | -1.36 | -1.57 | -1.13 | -1.11 | -1.57
ACCGAA | -1.96 | -2.02 | -1.8 | -1.49 | -2.04
GGACGA | -0.38 | -1.13 | -0.34 | -0.419 | -0.393
ACAACC | -0.867 | 0.506 | -0.656 | -0.297 | -1.67
ATAGGA | 1.22 | 0.116 | 0.248 | 0.769 | 1.37
GTAAGA | -0.161 | -0.739 | -0.645 | -0.211 | 0.235
GGACTA | 0.224 | -0.495 | -0.351 | 0.095 | 0.343
TAAGGT | 0.089 | 0.109 | 0.013 | 0.083 | 0.418
TCAAGG | -0.447 | 0.538 | 0.304 | -0.407 | -0.199
AGTGGT | -0.008 | 0.285 | 0.032 | 0.006 | 0.124
ACAGCC | -0.254 | 0.13 | 0.409 | -0.081 | -0.943
AGATGT | 0.488 | -0.401 | -0.153 | 0.168 | 0.65

Sequence | 6-mer SELEX enrichment z-score [1] | 6-mer SELEX enrichment z-score [2] | 6-mer SELEX enrichment z-score [3] | 6-mer SELEX enrichment z-score [4] | 6-mer SELEX enrichment z-score [5]
TCTTAG | -0.105 | 0.403 | 0.002 | -0.077 | 0.067
CACCAA | -0.597 | 0.801 | -0.214 | -0.399 | -1.39
TATTCG | 0.26 | 0.185 | 0.009 | 0.215 | 0.389
ATGGCA | 1.53 | 0.719 | 1.72 | 1.07 | 1.49
AACAGC | -1.05 | 0.55 | 0.359 | -0.717 | -1.1
GTATAT | 0.682 | 0.056 | 0.146 | 0.554 | 1.05
CAGGAT | 0.915 | 0.246 | 0.538 | 0.75 | 0.866
ATCACG | 0.33 | 1.63 | 1.38 | 0.069 | -0.006
AACATC | 0.144 | 1.77 | 1.7 | 0.058 | -0.582
GTACCG | -0.925 | -0.3 | -0.103 | -0.865 | -1.08
AGGGCT | 0.04 | 0.292 | 0.32 | 0.205 | 0.363
GCGAGA | -0.752 | -0.638 | -0.211 | -0.669 | -0.489
CGTCTG | -0.47 | 0.256 | 0.172 | -0.315 | -0.278
TACCAC | -0.504 | 0.07 | -0.467 | -0.574 | -0.949
ACCTGT | -0.644 | -0.437 | -0.804 | -0.659 | -0.775
TACGTG | 0.113 | -0.128 | -0.236 | -0.047 | 0.093
CTCGTC | -0.632 | 0.323 | -0.003 | -0.532 | -0.553
ACACTT | 1.37 | 0.947 | 0.77 | 1.51 | 0.81
CCACTA | 0.588 | 0.54 | -0.259 | 0.488 | 0.119
GGCATG | 1.02 | 0.357 | 1.61 | 0.741 | 0.863
